Test results: PubChem BioAssay (Tox21)
Where “and” joins values, the source holds several entries; their conditions need not be identical. Equal entries are not always repeated. Inconclusive results, whose numbers are uncertain, are shown with a selection of clear calls. A potency beside an inconclusive call is a rough fit, not a confirmed value. The source holds several records for some structures; these can differ, active in one and inactive in another. Calls of active or inactive are those of the source. Calls come from the whole dose curve; as a rule, active = well fitted activation curve with a large enough effect in the repeat runs; inconclusive = weak or mixed curves; inactive = flat fitted curve, though single readings scatter.

Test: A CellTox Green Cytotoxicity Assay to monitor cytotoxicity in HepG2 cells - 32 hour (AID 1224883); note: nearly all actives have a fitted effect of over 50% in size
Details: CellTox Green fluorescence; series mostly up to 76.8 µM; cytotoxicity increase: at the top concentration
Excerpt: National Center for Advancing Translational Sciences [NCATS]
NIH Chemical Genomics Center [NCGC]
U.S. Environmental Protection Agency [EPA]
National Institutes of Environmental Health Sciences [NIEHS]
National Toxicology Program [NTP]
Cell-based models are critical for drug discovery. Determining the natural cytotoxic effects resulting from test compounds is an essential research activity. A CellTox Green Cytotoxicity Assay to monitor cytotoxicity in real time of continues cell culture during 40 hours of the compound treatment was used to screen Tox21 10K library compounds in HepG2 cells. CellTox Green Cytotoxicity Assay is a nonlytic, homogeneous, biofluorescent method to measure cytotoxicity in cell culture after experimental manipulation. The assay system uses a proprietary asymmetric cyanine dye that is excluded from viable cells but preferentially stains the dead cell's DNA. […] Viable cells produce no appreciable increases in fluorescence. Therefore, the fluorescence signal produced by the binding interaction with dead cell DNA is proportional to cytotoxicity.
The mixture of HepG2 cell suspension and reagents were dispensed at 600cells/6 ul/well in 1536-well tissue culture treated black solid bottom plates using a Multidrop dispenser. After the assay plates were incubated at a 37 C/5% CO2 incubator for 5 hours, 23 nL of compounds dissolved in DMSO, positive and negative controls was transferred to the assay plate by a pintool work station. The plates were incubated at 37 C for 40 hours. The fluorescence intensity were measured at 0h, 8h, 16h, 24h, 32h and 40h time points using ViewLux plate reader during compound treatment.
% is set by controls: 0 for no effect and ±100 for the full control effect; potency is the fitted concentration of half-maximal effect; tags give direction and shape of the fitted curve.

Row | SMILES | Potency | cytotoxicity increase
1 | O=[N+]([O-])c1c(Cl)c(Cl)cc(Cl)c1Cl | active: 54.9 µM | –
2 | O=C/C(Cl)=C(/Cl)C(=O)O | inconclusive: 49 µM [activator, single point] | –
3 | C=C(C)[C@H]1Cc2c(ccc3c2O[C@@H]2COc4cc(OC)c(OC)cc4[C@@H]2C3=O)O1 | active: 27.9 µM and active: 24.5 µM and inconclusive: 33.8 µM [activator, partial curve, poor fit] | –
4 | CC[C@H]1C[C@@H]2C[C@H]3c4[nH]c5ccc(OC)cc5c4CCN(C2)[C@@H]13 | active: 54 µM | –
5 | CCCCCCCCCC(CC)c1ccc(S(=O)(=O)O)cc1 (stereo not given) | inconclusive: 55.2 µM [activator, single point] [middle of 4 runs] | –
6 | C=CCC1=C(C)C(OC(=O)C2C(C=C(C)C)C2(C)C)CC1=O (stereo not given) | inconclusive: 54.9 µM [activator, partial curve, poor fit] | –
7 | CCCCOCN(C(=O)CCl)c1c(CC)cccc1CC | inconclusive: 54.9 µM [activator, single point] | –
8 | CCOP(=S)(OCC)SC(CCl)N1C(=O)c2ccccc2C1=O (stereo not given) | inconclusive: 54.9 µM [activator, single point] | –
9 | Oc1ccc(C2(c3ccc(O)cc3)CCCCC2)cc1 | inconclusive: 52.1 µM [activator, single point] | –
10 | Cc1cccc(Cc2cnc[nH]2)c1C | inconclusive: 26.8 µM [activator, single point] | –
11 | [CH3][Sn]([CH3])([Cl])[Cl] | inconclusive: 62.7 µM [activator, single point] | –
12 | O=C(O)COc1nc(Cl)c(Cl)cc1Cl | inconclusive: 63.1 µM [activator, single point] | –
13 | CCCCCCCc1ccc(O)cc1 | active: 21.9 µM | –
14 | CC(C)CC(C)Nc1ccc(Nc2ccccc2)cc1 (stereo not given) | inconclusive: 54 µM [activator, partial curve, poor fit] | –
15 | CCOP(=O)(NC(C)C)Oc1ccc(SC)c(C)c1 (stereo not given) | inconclusive: 7.76 µM [activator, full curve, poor fit] | –
16 | CCOP(=S)(OCC)Oc1nc(Cl)c(Cl)cc1Cl | inconclusive: 21.9 µM [activator, partial curve, poor fit] | –
17 | CCCCCCCCCCCCCCn1cc[n+](C)c1 | active: 21.9 µM and active: 24.3 µM | –
18 | COP(=O)(OC)OC(Br)C(Cl)(Cl)Br (stereo not given) | inconclusive: 54.9 µM [activator, partial curve, poor fit] | –
19 | Oc1cc(Cl)c(Cl)cc1Cl | inconclusive: 61.2 µM [activator, single point] and inconclusive: 54.9 µM [activator, single point] | –
20 | ClC1=C(Cl)[C@]2(Cl)[C@H]3[C@H]([C@@H]4C=C[C@H]3C4)[C@@]1(Cl)C2(Cl)Cl | inconclusive: 54.9 µM [activator, partial curve, poor fit] and active: 54.9 µM | –

Row | SMILES | Potency | cytotoxicity increase
21 | CCCCNC(=O)n1c(NC(=O)OC)nc2ccccc21 | active: 12.2 µM | –
22 | c1ccc(-c2ccccc2)cc1 | inconclusive: 55.5 µM [activator, single point] | –
23 | N#Cc1sc2c(=O)c3ccccc3c(=O)c=2sc1C#N | active: 13.8 µM | –
24 | CN1CCC(O)(c2ccc(F)cc2)C(C(=O)c2ccc(F)cc2)C1 (stereo not given) | inconclusive: 26.8 µM [activator, single point] | –
25 | CCCCC(CC)COC(=O)Cl (stereo not given) | inconclusive: 43.6 µM [activator, single point] | –
26 | O=C(N[C@H]1N=C(c2ccccc2F)c2cccc3c2N(CC3)C1=O)c1cc2ccccc2[nH]1 | – | inactive: 24.2% [at 35.3 µM]
27 | COc1ccc2[nH]cc(CCN(C(C)C)C(C)C)c2c1 | inconclusive: 63.2 µM [activator, single point] | –
28 | CC(=O)C(Cl)Cl | inconclusive: 62.7 µM [activator, partial curve, poor fit] | –
29 | C1=Cc2cccc3cccc1c23 | inconclusive: 54.9 µM [activator, single point] | –
30 | C=CCC1=C(C)[C@@H](OC(=O)[C@@H]2[C@@H](C=C(C)C)C2(C)C)CC1=O | active: 49 µM | –
31 | CCC[CH2][Sn]([CH2]CCC)([O]C(C)=O)[O]C(C)=O | active: 0.221 µM | –
32 | CC1CCC(C(C)C)C(OC(=O)c2ccccc2N)C1 (stereo not given) | inconclusive: 54.2 µM [activator, single point] | –
33 | O=C(Nc1ccccc1)Nc1ccnc(Cl)c1 | inconclusive: 61.6 µM [activator, partial curve, poor fit] | –
34 | O=C(NC(=O)c1c(F)cccc1F)Nc1cc(Cl)c(OC(F)(F)C(F)F)c(Cl)c1 | – | inactive: -5.28%
35 | CC(=O)[O][Hg][c]1ccccc1 | active: 1.53 µM and active: 1.95 µM and active: 1.07 µM | –
36 | ClC1=C(Cl)C2(Cl)C3C(Cl)C(Cl)CC3C1(Cl)C2(Cl)Cl (stereo not given) | inconclusive: 54.8 µM [activator, single point] and inconclusive: 54.9 µM [activator, single point] | –
37 | CCCCC(CC)COC(=O)c1c(Br)c(Br)c(Br)c(Br)c1C(=O)OCC(CC)CCCC (stereo not given) | – | inactive: -13.2% [at 35.3 µM]
38 | CC(C)COP(=O)(OCC(C)C)OCC(C)C | – | inactive: 15.3%
39 | CNC(=O)N(C)c1nnc(C(C)(C)C)s1 | inactive | –
40 | CN(C)C(=S)SSC(=S)N(C)C | inconclusive: 0.216 µM [activator, full curve, poor fit] | –
